In the supplement of paper PMC6531468:
The list shows a part of the results. Values come from read counts of a selection and are noisy. Scores sum up all selected molecules that hold the word; the word was not tested alone.

How the values were obtained:
Assay in all cases: 6-mer SELEX enrichment z-score vs GST control; IMP3 is the RNA-binding protein IGF2BP3; higher = more enriched by binding
[1] = tested on: IMP3 KH1-4; conditions: construct: KH1-4 (164-579); SELEX round: R4
Description: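 SELEX-seq with GST-tagged IMP3 KH1-4 (Pro164-Lys579) and an N40 RNA pool, round 4. 6-mer z-score of sequence-tag enrichment normalised to the corresponding GST SELEX round; RNA k-mers written as DNA (T for U).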

[2] = tested on: IMP3 RRM1-2; conditions: construct: RRM1-2 (1-163); SELEX round: R2
Sequence of IMP3 RRM1-2 (chain, as listed by the source): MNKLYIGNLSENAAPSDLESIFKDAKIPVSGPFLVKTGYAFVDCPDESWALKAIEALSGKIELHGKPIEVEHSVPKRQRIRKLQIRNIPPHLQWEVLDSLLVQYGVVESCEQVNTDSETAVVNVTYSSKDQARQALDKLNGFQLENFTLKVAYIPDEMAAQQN
Description: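 SELEX-seq with GST-tagged IMP3 RRM1-2 (Met1-Asn163) and an N40 RNA pool, round 2. 6-mer enrichment z-score normalised to GST SELEX. RNA written as DNA (T = U).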

[3] = molecular target: IMP3 full-length (UniProt O00425); conditions: construct: FL IMP3 (1-579); SELEX round: R4
Sequence of UniProt O00425 (O00425 whole entry): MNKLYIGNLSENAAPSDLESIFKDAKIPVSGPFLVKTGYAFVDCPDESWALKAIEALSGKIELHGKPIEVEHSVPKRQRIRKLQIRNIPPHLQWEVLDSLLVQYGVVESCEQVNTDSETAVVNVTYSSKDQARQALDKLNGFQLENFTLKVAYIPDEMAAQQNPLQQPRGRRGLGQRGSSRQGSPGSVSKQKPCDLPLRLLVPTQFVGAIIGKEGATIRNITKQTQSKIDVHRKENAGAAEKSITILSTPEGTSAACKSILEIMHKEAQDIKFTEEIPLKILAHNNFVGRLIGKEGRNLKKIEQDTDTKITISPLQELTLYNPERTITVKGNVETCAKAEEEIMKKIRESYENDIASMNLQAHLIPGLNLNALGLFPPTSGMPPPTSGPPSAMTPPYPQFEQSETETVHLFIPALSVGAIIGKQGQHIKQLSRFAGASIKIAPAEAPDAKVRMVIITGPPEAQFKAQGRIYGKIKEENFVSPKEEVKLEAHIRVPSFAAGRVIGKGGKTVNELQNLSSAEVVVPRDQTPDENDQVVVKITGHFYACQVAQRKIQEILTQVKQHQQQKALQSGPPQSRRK
Description: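 SELEX-seq with GST-tagged full-length IMP3 and an N40 RNA pool, round 4. Each 6-mer is scored as an enrichment z-score of sequence tags containing it, normalised to the matching GST SELEX round. RNA written as DNA (T = U).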

[4] = tested on: IMP3 KH1-2; conditions: construct: KH1-2 (164-376); SELEX round: R4
Sequence of IMP3 KH1-2 (chain, as listed by the source): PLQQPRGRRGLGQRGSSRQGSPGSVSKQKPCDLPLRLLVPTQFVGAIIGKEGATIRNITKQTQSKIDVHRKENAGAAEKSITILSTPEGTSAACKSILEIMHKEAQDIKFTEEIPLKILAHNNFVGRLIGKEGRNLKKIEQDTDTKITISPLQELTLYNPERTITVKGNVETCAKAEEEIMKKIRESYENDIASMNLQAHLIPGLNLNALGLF
Description: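 SELEX-seq with GST-tagged IMP3 KH1-2 (Pro164-Phe376) and an N40 RNA pool, round 4 (stringent 300/600 mM KCl washes). 6-mer z-score of sequence-tag enrichment normalised to the corresponding GST SELEX round; RNA k-mers written as DNA (T for U).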

[5] = tested on: IMP3 KH3-4; conditions: construct: KH3-4 (377-579); SELEX round: R4
Sequence of IMP3 KH3-4 (chain, as listed by the source): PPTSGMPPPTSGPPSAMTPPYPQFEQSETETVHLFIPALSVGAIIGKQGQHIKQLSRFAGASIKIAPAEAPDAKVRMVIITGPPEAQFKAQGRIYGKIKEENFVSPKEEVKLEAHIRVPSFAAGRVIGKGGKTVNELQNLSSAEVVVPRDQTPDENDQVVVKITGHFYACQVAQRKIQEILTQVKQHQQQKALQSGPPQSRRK
Description: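 SELEX-seq with GST-tagged IMP3 KH3-4 (Pro377-Lys579) and an N40 RNA pool, round 4. 6-mer z-score of sequence-tag enrichment normalised to the corresponding GST SELEX round; RNA k-mers written as DNA (T for U).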

Sequence of IMP3 KH1-4 (chain, as listed by the source): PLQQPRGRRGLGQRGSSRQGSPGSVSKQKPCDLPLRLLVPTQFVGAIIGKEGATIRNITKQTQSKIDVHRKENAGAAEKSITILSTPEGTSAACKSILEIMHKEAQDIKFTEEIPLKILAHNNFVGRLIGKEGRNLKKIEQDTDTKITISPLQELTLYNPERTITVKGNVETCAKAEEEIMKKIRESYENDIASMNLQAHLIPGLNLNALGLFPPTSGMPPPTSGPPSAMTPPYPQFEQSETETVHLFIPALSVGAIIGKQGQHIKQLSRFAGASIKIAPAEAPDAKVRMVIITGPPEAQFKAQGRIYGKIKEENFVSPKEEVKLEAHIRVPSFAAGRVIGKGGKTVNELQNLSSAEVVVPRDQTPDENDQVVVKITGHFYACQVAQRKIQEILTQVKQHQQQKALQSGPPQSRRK

Sequence | 6-mer SELEX enrichment z-score [1] | 6-mer SELEX enrichment z-score [2] | 6-mer SELEX enrichment z-score [3] | 6-mer SELEX enrichment z-score [4] | 6-mer SELEX enrichment z-score [5]
ACGGGT | -0.566 | -0.125 | -0.076 | -0.424 | -0.231
GAGGAT | 0.832 | -0.28 | 0.114 | 0.63 | 0.897
CCCGCG | -1.81 | -0.448 | -0.583 | -1.41 | -1.8
TGATTT | 1.04 | 0.092 | 0.066 | 0.839 | 1.36
AGCGCT | -1.07 | 0.041 | -0.231 | -0.921 | -0.816
TCATCT | 0.683 | 0.936 | 1.05 | 0.539 | 0.341
CGTCCC | -0.95 | -0.33 | -0.201 | -0.858 | -1.25
TAAGCG | -1.14 | -0.217 | -0.864 | -1.16 | -0.813
GTAAAC | -0.846 | -0.657 | -0.976 | -0.799 | -0.618
AGTAAC | -0.332 | -0.449 | -0.302 | -0.293 | -0.199
TTGTAC | 0.009 | 0.149 | -0.181 | -0.18 | -0.113
ATACTT | 0.7 | 0.142 | 0.112 | 0.755 | 0.846
AAGAGT | -0.312 | -0.739 | -0.522 | -0.455 | -0.017
CATGGC | 0.93 | 1.11 | 1.45 | 0.766 | 0.696
TGGCCG | 0.485 | -0.161 | 0.594 | 0.422 | 0.183
CATTAG | 0.711 | 0.856 | 0.822 | 0.522 | 0.683
GACAGG | 1.03 | -0.339 | 0.893 | 1.01 | 0.858
GAAAAT | 0.375 | -1.88 | -1.21 | 0.148 | 1.4
CACAGA | 0.819 | 1.69 | 1.93 | 1.09 | 0.498
CTGAAC | -0.657 | -0.779 | -0.853 | -0.545 | -0.915
CGGTGC | -0.447 | 0.077 | 0.104 | -0.382 | -0.434
CGGTAC | -0.563 | 0.09 | 0.136 | -0.588 | -0.645
GGCCGA | -0.285 | -0.527 | 0.515 | -0.045 | 0.045

Sequence | 6-mer SELEX enrichment z-score [1] | 6-mer SELEX enrichment z-score [2] | 6-mer SELEX enrichment z-score [3] | 6-mer SELEX enrichment z-score [4] | 6-mer SELEX enrichment z-score [5]
TACTCT | -0.359 | 0.21 | -0.316 | -0.228 | -0.271
TTTACT | 0.796 | 0.286 | 0.043 | 0.82 | 1.05
TGACTA | 0.129 | -0.433 | -0.518 | 0.127 | 0.399
TTCAAA | 0.131 | 0.487 | 0.241 | 0.407 | 0.172
TAAAAT | 0.721 | -1.09 | -0.752 | 0.72 | 1.92
TTACCA | -0.047 | -0.062 | -0.433 | -0.129 | -0.212
TTATAC | 1.02 | 0.121 | 0.092 | 1.07 | 1.33
AAGCTA | -0.601 | -0.423 | -0.69 | -0.63 | -0.379
CTGTAA | 0.272 | -0.478 | -0.337 | 0.263 | 0.288
AAAAAG | -1.55 | -3.05 | -3.07 | -1.58 | -0.155
TCTCAA | -0.374 | 0.404 | 0.139 | -0.22 | -0.421
ATAGGT | 0.419 | 0.324 | 0.264 | 0.313 | 0.652
CGCGGC | 0.76 | 0.198 | 1.6 | 0.589 | 0.573
GAAACC | -2.06 | -1.78 | -2.15 | -1.9 | -2.18
AATCCC | -0.661 | -1.07 | -1.42 | -0.654 | -1.45
AGTAAA | 0.206 | -0.856 | -0.571 | 0.057 | 0.801
ATCCTT | 0.591 | 0.067 | -0.137 | 0.453 | 0.293
TCCTCA | 0.479 | 0.574 | 0.217 | 0.399 | -0.129
TGGGCA | 0.151 | 0.309 | 0.712 | 0.211 | 0.287
CGTAAC | -1.53 | -0.515 | -1.01 | -1.44 | -1.51
GGGCTC | -0.064 | 0.41 | 0.559 | 0.137 | 0.108
CTTTGT | 0.152 | 0.329 | -0.051 | 0.098 | 0.2
